Results as given in PubChem BioAssay AID1508642 (National Center for Advancing Translational Sciences (NCATS), 2021).
Hit rate of the full screen: of about 43,000 compounds, about 200 (0.47%) were called active. This list was built around the results that the source calls inconclusive (neither active nor inactive); the mix of calls is not that of the screen. Calls follow the shape of the dose curve; as a rule, active = well fitted cell-killing curve with a large enough effect; inconclusive = small, poorly fitted or top-dose-only effect, or effect the other way; inactive = flat fitted curve, though single readings scatter. Potencies of inconclusive entries are doubtful fits and often do not repeat.

Assay: Cell viability qHTS assay in S16 Pmp22-F2sN cells; also: nearly all actives have a fitted effect of over 65% in size
Conditions: S16 Pmp22-F2sN Schwann cells (luciferase reporters placed in the Pmp22 gene) viability, CellTiter-Glo, 24 h; activity change, negative = cytotoxicity: at 57.5 µM (top of the series)
In short: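 Seed 500-1,000 S16 Pmp22-F2sN cells per well in phenol-red-free DMEM with 10% heat-inactivated FBS; pin-add 23 nL compound; incubate 24 h at 37C; add CellTiter-Glo, wait 15 min protected from light; read luminescence.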
% is scaled to controls: 0 for no effect and ±100 for the full control effect; potency is read from the fitted curve at half-maximal effect; tags tell the direction and shape of the fitted curve.

Row | SMILES | Potency | activity change, negative = cytotoxicity
1 | CC(=O)Nc1ccc(C2Sc3ccccc3NC3=C2C(=O)c2ccccc23)cc1 (configuration not stated) | inconclusive: 31.6 µM [cytotoxic, single point] | 
2 | Cc1ccccc1OCC(=O)OCc1cc(=O)n2nc(C3CCCCC3)sc2n1 | inconclusive: 39.8 µM [cytotoxic, partial curve, poor fit] | 
3 | Cc1ccc(OC(=O)c2cc(-c3ccc4c(c3)OCCO4)on2)cc1C | inconclusive: 22.4 µM [rising, single point] | 
4 | Cc1cccc(OC(=O)c2cc(-c3ccc4c(c3)OCCO4)on2)c1 |  | inactive: -5.57%
5 | CCN(CC)S(=O)(=O)c1ccc(C(=O)Nc2nc3c(Cl)cc(Cl)cc3s2)cc1 | inconclusive: 39.8 µM [cytotoxic, single point] | 
6 | CN(C)CCCN(C(=O)c1cccs1)c1nc2ccc(F)cc2s1 | inconclusive: 3.16 µM [rising, partial curve, poor fit] | 
7 | O=C(CN1C(=O)CCc2cc(S(=O)(=O)N3CCOCC3)ccc21)Nc1cccc(Cl)c1 | inconclusive: 15.8 µM [rising, partial curve, poor fit] | 
8 | COc1ccccc1NC(=O)c1c(NCc2ccc(C)o2)sc2c1CCC(C)C2 (configuration not stated) | inconclusive: 31.6 µM [cytotoxic, single point] | 
9 | COc1ccc(-c2cn3c(n2)sc2cc(C(=O)NCCCN4CCCCCC4)ccc23)cc1 | inconclusive: 28.2 µM [cytotoxic, single point] | 
10 | CC(C(=O)Nc1cc(C(F)(F)F)ccc1Cl)n1nnc2sc3c(c2c1=O)CCCC3 (configuration not stated) |  | inactive: 0.0589%
11 | Cc1ccc(-c2csc(=Nc3ccccc3)n2Cc2ccc3c(c2)OCO3)cc1C | inconclusive: 25.1 µM [rising, partial curve, poor fit] | 
12 | CC1CCCN(Cc2cn3c(-c4cccc(Br)c4)nnc3s2)C1 (configuration not stated) | inconclusive: 0.447 µM [rising, full curve, poor fit] | 
13 | Cn1c(C(=O)NCCc2ccccc2)cc2c(=O)n3ccccc3nc21 |  | inactive: 11.7%
14 | CC(=O)N1CCCc2cc(S(=O)(=O)N3CCCC(C(=O)Nc4cccc(F)c4)C3)ccc21 (configuration not stated) | inconclusive: 35.5 µM [cytotoxic, partial curve, poor fit] | 
15 | COc1ccc(N2CCN(C(=O)c3ccc(Nc4nc5ccccc5n5nnnc45)cc3)CC2)cc1 | inconclusive: 3.16 µM [cytotoxic, full curve] | 
16 | O=C(CCS(=O)(=O)c1nc(-c2ccc3c(c2)OCO3)cc(C(F)(F)F)n1)Nc1ccc(F)c(Cl)c1 | inconclusive: 31.6 µM [cytotoxic, single point] | 
17 | Cc1cccc(NC(=O)CCNS(=O)(=O)c2cccc3nonc23)c1 |  | inactive: 16.3%
18 | CC(=O)Nc1ccc(S(=O)(=O)NC2(C(F)(F)F)C(=O)Nc3c2c(=O)[nH]c(=O)n3-c2ccc(C)c(C)c2)cc1 (configuration not stated) | inconclusive: 0.0282 µM [rising, full curve, poor fit] | 
19 | CCN1c2ccccc2-c2nc(SCC(=O)Nc3c(C)cc(C)cc3C)ncc2S1(=O)=O | inconclusive: 2.51 µM [cytotoxic, full curve, poor fit] | 

Row | SMILES | Potency | activity change, negative = cytotoxicity
20 | Cc1ccc(C(=O)CSc2nnc(-c3ccccc3)n2-c2ccccc2)cc1 | inconclusive: 8.91 µM [rising, partial curve] | 
21 | Cc1ccc(C)c(N2CCN(C(=O)CCCCCn3c(=O)[nH]c4ccccc4c3=O)CC2)c1 | inconclusive: 28.2 µM [cytotoxic, single point] | 
22 | CCOc1ccc(-c2cc(C(=O)N3CCN(c4cccc(C)c4)C(C)C3)c3ccccc3n2)cc1 (configuration not stated) | inconclusive: 39.8 µM [rising, single point] | 
23 | CCc1ccccc1NC(=O)C(=O)NCC(c1cccnc1)N1CCc2ccccc21 (configuration not stated) | inconclusive: 39.8 µM [cytotoxic, single point] | 
24 | Cc1ccccc1OCC(=O)Nc1ccc2nc(SCCOc3ccccc3)sc2c1 | inconclusive: 39.8 µM [rising, single point] | 
25 | Cc1ccc(NC(=O)NCC2CCN(Cc3cccc(Cl)c3)CC2)cc1Cl | inconclusive: 39.8 µM [cytotoxic, single point] | 
26 | CC(NC(=O)c1cccc(NC(=O)c2nsc3ccccc23)c1)c1ccccc1 (configuration not stated) | inconclusive: 28.2 µM [cytotoxic, single point] | 
27 | CCc1ccc(S(=O)(=O)Nc2cccc(-c3ccc(OC)nn3)c2)s1 | inconclusive: 17.8 µM [cytotoxic, partial curve, poor fit] | 
28 | O=C(Nc1cccc(F)c1)C1CCN(S(=O)(=O)c2ccc3[nH]c4c(c3c2)CCCCC4)CC1 | inconclusive: 31.6 µM [cytotoxic, partial curve, poor fit] | 
29 | CC(C)c1ccc2oc(-c3cc(NC(=O)c4cccnc4)ccc3Cl)nc2c1 | inconclusive: 28.2 µM [cytotoxic, single point] | 
30 | Cc1cccc(NC(=O)CN2C(=O)CC(c3ccccc3)Sc3ccccc32)c1 (configuration not stated) | inconclusive: 0.199 µM [cytotoxic, full curve, poor fit] | 
31 | COc1ccc(CCN2C(=O)N(c3ccc(C)cc3)C(=O)C2CC(=O)Nc2ccc(OC)cc2)cc1 (configuration not stated) |  | inactive: -26.2%
32 | COc1ccc(-n2c(SCc3nc(-c4ccc(Cl)cc4)no3)nnc2-c2ccncc2)cc1 | inconclusive: 14.1 µM [cytotoxic, partial curve, poor fit] | 
33 | CCOC(=O)N1CCC(NC(=O)c2cnn(-c3ccc(C)cc3)c2C2CCN(C(=O)OC(C)(C)C)CC2)CC1 | inconclusive: 0.0282 µM [rising, full curve, poor fit] | 
34 | Cc1cccc(NC(=O)c2oc3ccc(S(=O)(=O)N(C)C4CCCCC4)cc3c2C)c1C | inconclusive: 39.8 µM [cytotoxic, partial curve, poor fit] | 
35 | CCc1ccc(S(=O)(=O)N2CCN(c3ccc(Cl)c(Cl)c3)CC2)cc1 | inconclusive: 22.4 µM [cytotoxic, single point] | 
36 | CC(C)c1ccc(NC(=O)c2cnn3c(C(F)F)cc(-c4ccccc4)nc23)cc1 | inconclusive: 6.31 µM [rising, full curve, poor fit] | 
37 | COc1ccc(-n2ccnc(NCc3cccs3)c2=O)cc1 | inconclusive: 39.8 µM [cytotoxic, single point] | 
